# According to article PMC4336329 (PLoS ONE, 2015):
# Hit rate of the full screen: of about 310,000 compounds, about 2,200 (0.71%) showed an effect of 50% or more. Effects have a minus sign here. Some of the results follow. Where a SMILES comes first, the peptide text is derived from it. [ ]: non-standard residue; d: D form. The star is where a group is joined. Phg = N[CH](C(=O)O)c1ccccc1; Cbz = O=C(OCc1ccccc1)*
# Target: human ether-à-go-go-related gene (hERG) potassium channel (human, UniProt Q12809)
# Assay: primary screen, population patch clamp on CHO cells stably expressing hERG
# Sequence of human ether-à-go-go-related gene (hERG) potassium channel (Q12809 whole entry, looked up): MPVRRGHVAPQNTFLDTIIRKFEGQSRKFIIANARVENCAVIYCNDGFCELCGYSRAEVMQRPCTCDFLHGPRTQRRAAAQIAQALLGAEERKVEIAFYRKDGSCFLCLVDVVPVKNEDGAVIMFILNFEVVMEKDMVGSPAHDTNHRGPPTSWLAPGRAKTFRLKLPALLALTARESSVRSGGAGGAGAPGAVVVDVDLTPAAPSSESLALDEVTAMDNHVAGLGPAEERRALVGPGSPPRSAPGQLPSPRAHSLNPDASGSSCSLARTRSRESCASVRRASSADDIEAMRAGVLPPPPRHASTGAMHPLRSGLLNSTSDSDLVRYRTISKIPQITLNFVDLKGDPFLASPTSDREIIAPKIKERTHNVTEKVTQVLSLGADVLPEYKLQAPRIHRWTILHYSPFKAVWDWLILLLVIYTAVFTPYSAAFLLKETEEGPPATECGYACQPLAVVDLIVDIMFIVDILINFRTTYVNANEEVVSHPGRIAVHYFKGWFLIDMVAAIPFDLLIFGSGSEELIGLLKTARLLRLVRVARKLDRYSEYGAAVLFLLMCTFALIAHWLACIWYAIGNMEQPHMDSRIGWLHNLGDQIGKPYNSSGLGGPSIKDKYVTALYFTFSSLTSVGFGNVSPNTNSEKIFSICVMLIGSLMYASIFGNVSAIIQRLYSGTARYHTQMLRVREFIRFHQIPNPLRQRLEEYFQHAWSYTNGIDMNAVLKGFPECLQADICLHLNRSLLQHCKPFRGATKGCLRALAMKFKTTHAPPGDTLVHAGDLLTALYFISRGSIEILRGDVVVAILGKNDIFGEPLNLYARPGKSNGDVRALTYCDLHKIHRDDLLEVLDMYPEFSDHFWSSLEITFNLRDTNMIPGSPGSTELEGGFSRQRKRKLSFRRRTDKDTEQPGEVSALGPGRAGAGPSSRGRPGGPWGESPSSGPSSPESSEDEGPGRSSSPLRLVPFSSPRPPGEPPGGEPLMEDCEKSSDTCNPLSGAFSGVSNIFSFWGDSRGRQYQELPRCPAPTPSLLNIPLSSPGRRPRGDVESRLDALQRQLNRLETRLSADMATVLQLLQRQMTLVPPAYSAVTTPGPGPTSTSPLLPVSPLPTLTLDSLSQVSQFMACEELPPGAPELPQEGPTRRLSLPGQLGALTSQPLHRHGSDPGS
row,Structure (SMILES),"hERG current change (%, negative = inhibition) at 1uM [%]"
1,CC1CCCCC1NC(=O)c1cccc(NC2=NC3CS(=O)(=O)CC3S2)c1 (stereo not drawn),2.53
2,C/C(=N\O)C(C)(C)Nc1ccc(Cl)cc1,10.9
3,COc1cc(NC(=O)COC(=O)CO/N=C(\C)c2ccc3c(c2)OCO3)cc(OC)c1OC,21
4,Cc1sc2nc(CN3CCOCC3)[nH]c(=O)c2c1-c1ccccc1,7.06
5,O=C(COc1ccccc1Cl)Nc1nnc(S(=O)(=O)N2CCCCCC2)s1,9.78
6,CCOC(=O)COn1c(=O)c(-c2ccc(F)cc2)[n+]([O-])c2ccccc21,7.95
7,CCOc1ccccc1NC(=S)Nn1cnnc1,13.6
8,Cc1c(C(=O)OCc2ccccc2)nnn1-c1nonc1N,6.92
9,COc1ccc(/C=N/NC(=O)c2cc(-c3ccccc3)nc3ccccc23)c(C(=O)O)c1OC,13.2
10,O=C(Cc1ccccc1)N1CCN=C1SCc1cccc([N+](=O)[O-])c1,7.52
11,COc1ccc(CNC(=O)NCCc2c[nH]c3ccccc23)cc1,13.3
12,Nc1ccccc1SSc1ccccc1N,18
13,COC(=O)C(Cc1ccc(O)cc1)NC(=O)C(C)NC(=O)c1ccc(C(C)(C)C)cc1 (stereo not drawn),5.84
14,COc1ccc(CNC(=O)CN2C(=O)COc3ccc(S(=O)(=O)N4CCC(C)CC4)cc32)cc1,21.1
15,Cc1nc(SCC(=O)NC(=O)NC2CCCCC2)nc(C)c1C,10.8
16,COCCNC(=S)NN=C1CCCCC1,5.44
17,Nc1ccc(Oc2ncccn2)cc1,15.4
18,O=C(CCCN1C(=O)S/C(=C\C=C\c2ccccc2)C1=O)Nc1ccc(O)cc1,11
19,O=C(c1ccco1)N1CCN(C(=O)C2CC(=O)N(c3ccc(Cl)cc3)C2)CC1 (stereo not drawn),-80.2

row,Structure (SMILES),"hERG current change (%, negative = inhibition) at 1uM [%]"
1,O=C(Nc1cccnc1)c1ccccc1-c1nc(-c2ccccc2F)no1,-10.3
2,O=C(COC(=O)c1cncc(Br)c1)Nc1ccc2c(c1)OCO2,2.92
3,O=C1C(=O)N(CNc2cccnc2)c2ccccc21,11.9
4,O=C(O)C(NC(=O)C1CCCN1C(=O)OCc1ccccc1)c1ccccc1 (stereo not drawn) (Cbz-Pro-[Phg]-OH; configuration not given here),14.6
5,Cc1c(C(=O)Nc2ccc3c(c2)CCC3)cccc1[N+](=O)[O-],1.46
6,O=C(CSCCO)Nc1cccc2ccccc12,10.1
7,CC(C)C[C@H]1COCCS(=O)(=O)N1Cc1cccc(F)c1,16.7
8,CC(C)(C)C1CCC(OC(=O)C[N+]2(C)CCCC2)CC1.[I-] (stereo not drawn),15
9,Cc1nc2c(c(C)nn2-c2ccccc2)c(C)c1CCC(=O)NCCCOC(C)C,-1.06
10,CN(CCC#N)C(=O)COc1ccc(Br)cc1Cl,3.5
11,COc1ccc(Br)cc1C(=O)Nc1cccc(NC(=O)c2ccco2)c1,-1.61
12,COc1ccc(-c2ccc(/C=N/N3C(=O)C4C5C=CC(C6CC56)C4C3=O)o2)c([N+](=O)[O-])c1 (stereo not drawn),-2.46
13,O=c1c2cnn(-c3ccccc3)c2ncn1Cc1cccnc1,11.4
14,Br.C1=C(c2ccco2)N2CCN=C2S1,11.3
15,Cc1cccc(Cn2c(C(C)O)nc3ccccc32)c1 (stereo not drawn),9.66
16,CC(C)(C)N1CC23C=CC(C[C@@H]2C1=O)O3 (stereo partly drawn),-0.349
17,Fc1cccc(CCN2CCNC[C@@H]2CC2CCCCC2)c1,1.12
18,COc1ccc2cc3c(N)c(C(=O)NCc4ccco4)sc3nc2c1,1.04
19,Cc1cccc(NC(=O)c2ccc(-n3cccn3)c([N+](=O)[O-])c2)c1,3.7

row,Structure (SMILES),"hERG current change (%, negative = inhibition) at 1uM [%]"
1,CCOC(=O)[C@@H]1[C@H]2COc3ccccc3[C@@H]2N2C(=O)N(c3ccc(OC)cc3)C(=O)[C@]12C,-4.92
2,CC(C)CCn1c(Cl)nc2c1c(=O)n(C)c(=O)n2C,10.8
3,CC(C)(C)NS(=O)(=O)c1ccc(CCC(=O)NCc2ccc3c(c2)OCO3)cc1,-4.5
4,COc1cccc(/C=C/C(=O)NNC(=O)CCN2CCN(Cc3ccccc3)CC2)c1,-7.16
5,O=C(NC1CCCCC1)C(=S)N1CCOCC1,7.11
6,COc1ccc(NC(=O)CSCC(=O)Nc2ccccc2C(=O)N2CCCCC2)cc1,11
7,O=C(CCl)N1N=C(c2ccco2)CC1c1cccs1 (stereo not drawn),7.99
8,CC(Oc1cc(C(F)(F)F)cc(C(F)(F)F)c1)C(=O)NC(N)=O (stereo not drawn),-0.401
9,COc1cc(Br)cc(C=Nc2cccc(C(F)(F)F)c2)c1O,13.5
10,O=C(OCn1ncc(Br)c(Br)c1=O)c1c(F)cccc1F,5.29
11,COc1ccc(-c2nnc(SCc3cccnc3)o2)cc1,-0.205
12,COc1cc2c(cc1OC)CC(=O)NC=C2,3.4
13,O=C1C(=O)N(CCO)C(c2cccc(F)c2)/C1=C(\O)c1ccc(Cl)cc1 (stereo not drawn),-0.365
14,COc1cc2c(cc1OC)C(c1cc(C)ccc1C)CC(=O)N2 (stereo not drawn),12.5
15,Cc1cc(C)c(NC(=S)NCCCSC2CCCCC2)c(C)c1,10.7
16,O=C(CNC(=O)c1ccc(Cl)cc1Cl)NCc1ccccn1,13.2
17,Cc1cc2c(=O)n(C)c(SCC(=O)Nc3cccc(O)c3)nc2s1,8.14
18,CCN(CC)C(=O)Cn1cnc2sc(C(=O)Nc3cc(OC)c(OC)c(OC)c3)c(C)c2c1=O,11.3
19,COC(=O)c1ccc(C23CC4(C2)[C@H](CN(C)[C@@H]4c2ccccc2)C3c2ccccc2)cc1 (stereo partly drawn),11.7
